# Source: PubChem BioAssay AID1345082 (National Center for Advancing Translational Sciences (NCATS), 2018)
# Among all 94,000 compounds or so, about 4,000 (4.3%) were called active. Inconclusive results, whose numbers are uncertain, are shown with a selection of clear calls. The call rests on the fitted dose curve; in most records, active means well fitted inhibition curve with a large enough effect; inconclusive means small, poorly fitted or top-dose-only effect; inactive means no such curve, though single readings can be large or run the other way. A potency beside an inconclusive call is a rough fit, not a confirmed value.
# Assay: Cytotoxic Profiling in NIH 3T3 Cell Line of Diverse Libraries Using Quantitative High-Throughput Screening; further: nearly all actives have a fitted effect of over 55% in size
# Conditions: NIH 3T3 viability, CellTiter-Glo ATP luminescence, 48-72 h; activity change, negative = cytotoxicity: at 96.7 µM (top of the series) unless noted; series mostly up to 96.7 µM
# Summary of the method: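 ATP-dependent luminescence (CellTiter-Glo) served as the viability signal for NIH 3T3 cells treated with compound for 48 or 72 hr at 37 °C.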
# On the % scale 0 is the no-effect control and ±100 the full control effect; potency means the concentration at half of the fitted maximal effect; tags describe the fitted curve by direction and shape.
Compound,Potency,"activity change, negative = cytotoxicity",outcome
O=C(c1ccc2c(c1)OCO2)N1CCN(c2ccc3nnc(-c4ccccc4)n3n2)CC1,"inconclusive: 17.8 µM [inhibitor, full curve, poor fit]",–,–
CN1CCOc2c(C(=O)NCc3cnn(C)c3)cc(-c3ccccc3)cc21,"inconclusive: 79.4 µM [inhibitor, partial curve]",–,–
CCC(c1cccs1)N1C(=O)[C@H]2CN(S(=O)(=O)c3ccc4c(c3)CCC4)C[C@H]2C1=O (stereo partly drawn),–,inactive: 2.25%,–
O=C(Cn1ccn2nc(-c3ccc(F)cc3)c(CO)c2c1=O)Nc1ccc(Cl)cc1F,–,inactive: -21.3%,–
COc1ccc(CN2C[C@H](O)C[C@H]2c2nc(-c3cccc(C)c3)no2)c2ccccc12,active: 79.4 µM,–,–
COCC(=O)NC1CCN(c2nccc(Nc3ccc(C)cc3)n2)CC1,active: 35.5 µM,–,–
Cn1ncc2c(C(=O)NCC(F)F)cc(-c3ccccc3C(F)(F)F)nc21,"inconclusive: 50.1 µM [inhibitor, partial curve, poor fit]",–,–
O=c1[nH]c(C2CCCN(Cc3cccc4ccccc34)C2)nn1-c1ccc(Cl)cc1 (stereo not drawn),"inconclusive: 50.1 µM [inhibitor, partial curve, poor fit]",–,–
Cc1cccc(-c2cccc(CN3CCC(NC(=O)c4ccc(F)cc4)CC3)c2)c1,"inconclusive: 50.1 µM [inhibitor, partial curve, poor fit]",–,–
CC(Oc1ccccc1)C(=O)N1CCc2c(c(-c3nncn3C(C)C)nn2C)C1 (stereo not drawn),–,inactive: -18.2%,–
CCCn1c(C)cnc1CC1CCN(S(=O)(=O)c2ccccc2)C1 (stereo not drawn),–,inactive: -7.99%,–
COc1cccc(N2CC(C(=O)NCCCc3ccccc3)NC2=O)c1 (stereo not drawn),"inconclusive: 50.1 µM [inhibitor, partial curve, poor fit]",–,–
Cc1cc2c(c(=O)n(-c3ccccc3)c(=O)n2CC(=O)Nc2ccccc2Cl)n1C,"inconclusive: 70.8 µM [inhibitor, single point]",–,–
O=C(CCc1ccccc1)N1CC(Oc2cccc(-c3nc(-c4ccccc4)no3)c2)C1,"inconclusive: 44.7 µM [inhibitor, partial curve, poor fit]",–,–
CC(C)c1ccc(OCc2nc3c(n2Cc2ccccc2)C(=O)N(CC2CC2)CCN3)cc1,"inconclusive: 44.7 µM [inhibitor, partial curve, poor fit]",–,–
COc1cccc(-c2cc3c(=O)n(CC(O)c4ccc(C(C)C)cc4)ccn3n2)c1 (stereo not drawn),"inconclusive: 50.1 µM [inhibitor, partial curve, poor fit]",–,–
CC1Oc2ccc(NC(=O)c3cccc(F)c3)cc2CN(Cc2ccc3c(c2)OCO3)C1=O (stereo not drawn),"inconclusive: 50.1 µM [inhibitor, single point]",–,–
O=C(C1CC1)N1CCC(Cc2nc(-c3ccc(F)cc3)no2)CC1,"inconclusive: 28.2 µM [inhibitor, full curve, poor fit]",–,–
O=C(NCCc1ccccc1F)c1ccc2nnc(C3CC3)n2c1,–,inactive: -26.6% [at 138 µM],–
COc1ccccc1CCC(=O)N1CCC(Cc2nc(-c3ccc(F)cc3)no2)CC1,"inconclusive: 39.8 µM [inhibitor, partial curve, poor fit]",–,–
COc1ccnc(N2CC[C@H](c3nnc(-c4ccc(C)cc4)o3)C2)n1,"inconclusive: 79.4 µM [inhibitor, partial curve, poor fit]",–,–

Compound,Potency,"activity change, negative = cytotoxicity",outcome
CC(=O)NC1(C)CCN(Cc2ccc(-c3ccc4ccccc4c3)cc2)C1 (stereo not drawn),active: 25.1 µM,–,–
CCc1nc2cc(N3CCC(C(=O)NCc4cccnc4)CC3)cnc2nc1CC,"inconclusive: 63.1 µM [inhibitor, partial curve, poor fit]",–,–
C[C@@H]1CN(C(=O)c2cnc3c(O)cccn3c2=O)CC[C@@]1(O)C1CCC1,"inconclusive: 31.6 µM [inhibitor, full curve]",–,–
O=C(NC1CCCCC1)C1CCc2ncc(-c3ccsc3)n2C1 (stereo not drawn),"inconclusive: 50.1 µM [inhibitor, partial curve, poor fit]",–,–
C[S+](=O)([O-])N1CCCC1C(=O)N1CCC(N2Cc3ccccc3C2=O)CC1 (stereo not drawn),–,inactive: 3.42%,–
c1ccc(-c2nnc3ccc(NC4CCC4)nn23)nc1,"inconclusive: 126 µM [inhibitor, single point]",–,–
COCCNC(=O)c1ccc2c(c1)C1(CCN(C)C1)CN2Cc1csc(C)n1 (stereo not drawn),"inconclusive: 50.1 µM [inhibitor, full curve]",–,–
O=C(c1ccsc1)N1CCC(N2CC(OCC3CC3)C23CCOCC3)CC1 (stereo not drawn),–,inactive: -23.3%,–
CN(C)c1ccc2ncc(Nc3ccccc3)n2n1,"inconclusive: 100 µM [inhibitor, partial curve, poor fit]",–,–
COc1ncccc1-c1cn(C)c(=O)n2cc(CNc3ccccc3)nc12,"inconclusive: 79.4 µM [inhibitor, partial curve, poor fit]",–,–
COc1cc(OC)cc(C(=O)N2CCC3(CC2)N(C)C(=O)CS3(=O)=O)c1,–,–,inactive
CC(C)c1noc(-c2cn(C3CCN(C(=O)c4cccc5[nH]ccc45)C3)nn2)n1 (stereo not drawn),"inconclusive: 35.5 µM [inhibitor, partial curve, poor fit]",–,–
Cc1cnc(NC(=O)c2ccc3c(c2)OCCN(CCC(C)C)C3)s1,"inconclusive: 20 µM [inhibitor, full curve, poor fit]",–,–
COC[C@@H]1CN(C(=O)CCc2ccccc2)C[C@H]1C(N)=O,"inconclusive: 79.4 µM [inhibitor, single point]",–,–
Cc1ccc(-c2cccc(CN3CCCC3C(=O)NCc3ccccc3)c2)cc1Cl (stereo not drawn),active: 44.7 µM,–,–
Cc1cccc(CN2CCCC3(CCN(C(=O)c4ccc(=O)[nH]c4)C3)C2=O)c1 (stereo not drawn),–,inactive: -16.9%,–
CCn1c2ccccc2c2cc(C(=O)N3CCCCCCNC(=O)CC3)ccc21,"inconclusive: 79.4 µM [inhibitor, partial curve, poor fit]",–,–
Cc1nn2c(c1-c1ccccc1C(N)=O)N(C(=O)c1ccccc1)CCC2,"inconclusive: 100 µM [inhibitor, partial curve, poor fit]",–,–
Cc1nc(C)c(C(=O)N2CCC3(CC2)CC(N(Cc2ccccc2)C2CC2)CCO3)s1 (stereo not drawn),"inconclusive: 10 µM [inhibitor, full curve, poor fit]",–,–
Cc1ccc(Cl)cc1NC(=O)Cn1c(C)cc2nc3n(c(=O)c21)CCCC3,"inconclusive: 50.1 µM [inhibitor, partial curve, poor fit]",–,–
O=C(c1ccc(Cl)cc1)N1CCOCC2(C1)CN([S+](=O)([O-])c1ccccc1)C2,active: 50.1 µM,–,–

Compound,Potency,"activity change, negative = cytotoxicity",outcome
O=C(c1ccc(C(F)(F)F)cc1)N1CCn2c(nn(-c3cccc(Cl)c3)c2=O)C1,"inconclusive: 50.1 µM [inhibitor, partial curve, poor fit]",–,–
CC(C)(C)CC(=O)N[C@H]1CC(C)(C)[C@@H]2C[C@@](C)(O)CC[C@]12CCC(=O)NCCc1c[nH]c2ccccc12,"inconclusive: 39.8 µM [inhibitor, partial curve, poor fit]",–,–
COc1ccc(-c2noc([C@@H](C)NC(C)=O)c2C(=O)O)cc1,–,inactive: -1.19% [at 138 µM],–
Cc1cnc(-c2ccccc2)n1CCNC(=O)c1cccnc1,"inconclusive: 79.4 µM [inhibitor, partial curve, poor fit]",–,–
O=C(Nc1ccccc1)NC1CCCN(c2ccc3nnc(C4CC4)n3n2)C1 (stereo not drawn),–,inactive: 4.14%,–
COc1cc(F)cc(-c2ncc3c(n2)OCCN(c2cccc(C(F)(F)F)c2)C3=O)c1,"inconclusive: 89.1 µM [inhibitor, partial curve]",–,–
Cc1noc(C)c1CC(=O)NCCc1noc(-c2cccnc2)n1,–,–,inactive
Oc1ccc(-c2nc(C3CC3)nc3c2CN(Cc2cccc4ccccc24)CC3)cc1,"inconclusive: 22.4 µM [inhibitor, full curve, poor fit]",–,–
O=C(c1ccccc1F)N1CCC(Oc2cccnc2)C1 (stereo not drawn),–,inactive: 1.05%,–
CCOc1ccccc1C(=O)NC1CCCN(c2cc(-c3ccc(Cl)cc3)[nH]n2)C1 (stereo not drawn),active: 15.8 µM,–,–
COc1ccc(-c2nc(C3CC3)nc3c2CCN(Cc2ccccc2)CC3)cc1,–,inactive: -28.9%,–
CC1=C[C@@H](CN2CCCC2)[C@H](C(C)C)C[C@H]1Cc1nnc(-c2ccc([N+](=O)[O-])cc2)o1,"inconclusive: 63.1 µM [inhibitor, partial curve, poor fit]",–,–
O=C(NCCc1ccccn1)C1CCCN(c2nc(-c3ccccc3)nc3c2CCC3)C1 (stereo not drawn),"inconclusive: 56.2 µM [inhibitor, partial curve, poor fit]",–,–
OC1CCCN(c2ccc(-c3nc(-c4cccc(C(F)(F)F)c4)no3)cn2)C1 (stereo not drawn),"inconclusive: 39.8 µM [inhibitor, full curve, poor fit]",–,–
O=C(NCCCN1CCCc2ccccc21)C1CCCCC(=O)N1Cc1ccccc1 (stereo not drawn),"inconclusive: 70.8 µM [inhibitor, partial curve, poor fit]",–,–
Cc1ccc(NC(=O)CN2C(=O)NC(c3ccc(Cl)cc3)C3=C2COC3=O)cc1Cl (stereo not drawn),active: 28.2 µM,–,–
COc1ccc(CN2CCC3(CC2)C(=O)NCN3Cc2ccc(Cl)cc2)cc1,"inconclusive: 50.1 µM [inhibitor, partial curve, poor fit]",–,–
O=C(Cn1cccc1-c1nc(-c2ccc(F)cc2)no1)Nc1ccccc1,–,–,inactive
COCCN1Cc2nc(-c3cccc(NC(C)=O)c3)ccc2OCC1=O,"inconclusive: 89.1 µM [inhibitor, single point]",–,–
O=C(NC[C@H]1Cn2c(-c3cccc(Cl)c3)cnc2CO1)Nc1ccccc1,"inconclusive: 56.2 µM [inhibitor, partial curve, poor fit]",–,–
CCN1c2cc(C(=O)Nc3ccc(C)c(F)c3)ccc2C(=O)N2CCCCCC21 (stereo not drawn),active: 39.8 µM,–,–
